Data published in article PMC5019376.
No constants are given. Whether binding was seen depends on the method and setting. In cells and extracts the contact can be indirect. Some binding calls cover weakened binding; strength is not graded here.

By UniProt entry, the sequences of proteins in these tests, tags left out.
UniProt Q38825: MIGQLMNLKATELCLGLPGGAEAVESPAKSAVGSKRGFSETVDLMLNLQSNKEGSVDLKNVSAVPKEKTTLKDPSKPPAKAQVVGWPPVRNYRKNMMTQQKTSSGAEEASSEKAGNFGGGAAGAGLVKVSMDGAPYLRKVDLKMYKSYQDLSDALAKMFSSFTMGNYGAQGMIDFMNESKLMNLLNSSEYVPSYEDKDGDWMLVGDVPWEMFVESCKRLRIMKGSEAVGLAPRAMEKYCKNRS

Target: IAA7, BiFC fusion (Arabidopsis) (UniProt Q38825)
Experiment: split reporter; BiFC after transient expression in Nicotiana benthamiana leaves, confocal imaging; some TIR1-TIR1 samples with co-expressed Myc:ASK1 and 100 uM CHX

IAA7, BiFC fusion (from UniProt Q38825 1-243)
binding: binds
